Values of other authors in US20260217837A1, “FGFR3 BINDING MOLECULES AND METHODS OF USE THEREOF” (Regeneron Pharmaceuticals, Inc., priority 2023, published 2026).
Numbering of substitutions follows the chain as printed.

B1: PRO-021: anti-FGFR3 IIIc antibody of WO 2006/048877 A2; SEQ ID NO: 32/33 (antibody, V domains shown)
VH: QVQLVQSGAEVKKPGSSVKVSCKASGGTFSSYAISWVRQAPGQGLEWMGGIIPIFGTANYAQKFQGRVTITADESTSTAYMELSSLRSEDTAVYYCARDNWFKPFSDVWGQGTLVTVSS
VL: DIVMTQSPDSLAVSLGERATINCRSSQSVLYSSNNKNYLAWYQQKPGQPPKLLIYWASTRESGVPDRFSGSGSGTDFTLTISSLQAEDVAVYYCQQYDSIPYTFGQGTKVEIKRT
B2: PRO-024: anti-FGFR3 IIIc antibody of WO 2006/048877 A2; SEQ ID NO: 34/48 (antibody, V domains shown)
VH: B1 VH with D99V, W101H, F102W, K103T, P104Y, F105T, S106F, V108Y
VL: DIVLTQSPATLSLSPGERATLSCRASQSVSSSYLAWYQQKPGQAPRLLIYGASSRATGVPARFSGSGSGTDFTLTISSLEPEDFATYYCQQMSNYPDTFGQGTKVEIKRT
B3: MS-Pro-21: anti-FGFR3 Ig-like domain 3 antibody of WO 2002/102972 A2; SEQ ID NO: 32/33 (antibody, V domains shown)
VH: B1 VH
VL: B1 VL
B4: MS-Pro-24: anti-FGFR3 Ig-like domain 3 antibody of WO 2002/102972 A2; SEQ ID NO: 34/35 (antibody, V domains shown)
VH: B1 VH with D99V, W101H, F102W, K103T, P104Y, F105T, S106F, V108Y
VL: DIVLTQSPATLSLSPGERATLSCRASQSVSSSYLAWYQQKPGQAPRLLIYGASSRATGVPARFSGSGSGTDFTLTISSLEPEDFATYYCQQSNYPDTFGQGTKVEIKRT

Tested on: FGFR3
Settings: Exemplary FGFR3 D3 binding sequences; antibodies of cited PCT publications; cited from earlier work

Molecule	Activity
B1	Antagonistic
B2	Antagonistic
B3	Antagonistic
B4	Antagonistic

Same assay, conditions: Table T-1, exemplary FGFR3 parental antibodies of cited publications; cited from earlier work

Molecule	Activity
B1	Antagonistic
B2	Antagonistic
B3	Antagonistic
B4	Antagonistic
